Measurements reported in the supplement of paper PMC8728848.
The other results are listed elsewhere or left out.

What was measured:
Assay in all cases: glycan array binding signal (z-score within array); higher = stronger binding
Conditions in all cases: glycan notation: IUPAC condensed, linker removed
[1] = molecular target: Gal(b1-4)GlcNAc(b1-3)Gal(b1-4)Glc
Procedure, shortened: (§1)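 Glycan array binding is given as a within-array Z-score, which can be read as non-binding when negative. The arrays, 3228 of them, came from the Consortium for Functional Glycomics database and were retained only where the protein sequence was available. Z-scores were averaged across arrays of the same protein sequence at different concentrations or buffers and across linkers.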

[2] = molecular target: Gal(b1-4)GlcNAc(b1-3)Gal(b1-4)GlcNAc
Procedure, shortened: as §1

[3] = molecular target: Gal(b1-4)GlcNAc(b1-3)Gal(b1-4)GlcNAc(b1-2)Man(a1-3)[Gal(b1-4)GlcNAc(b1-3)Gal(b1-4)GlcNAc(b1-2)Man(a1-6)]Man(b1-4)GlcNAc(b1-4)GlcNAc
Procedure, shortened: as §1

[4] = molecular target: Gal(b1-4)GlcNAc(b1-3)Gal(b1-4)GlcNAc(b1-2)Man(a1-3)[Gal(b1-4)GlcNAc(b1-3)Gal(b1-4)GlcNAc(b1-2)Man(a1-6)]Man(b1-4)GlcNAc(b1-4)[Fuc(a1-6)]GlcNAc
Procedure, shortened: as §1

[5] = molecular target: Gal(b1-4)GlcNAc(b1-3)Gal(b1-4)GlcNAc(b1-2)[Gal(b1-4)GlcNAc(b1-3)Gal(b1-4)GlcNAc(b1-6)]Man(a1-6)[Gal(b1-4)GlcNAc(b1-3)Gal(b1-4)GlcNAc(b1-2)Man(a1-3)]Man(b1-4)GlcNAc(b1-4)GlcNAc
Procedure, shortened: as §1

[6] = molecular target: Gal(b1-4)GlcNAc(b1-3)Gal(b1-4)GlcNAc(b1-2)[Gal(b1-4)GlcNAc(b1-3)Gal(b1-4)GlcNAc(b1-6)]Man(a1-6)[Gal(b1-4)GlcNAc(b1-3)Gal(b1-4)GlcNAc(b1-2)Man(a1-3)]Man(b1-4)GlcNAc(b1-4)[Fuc(a1-6)]GlcNAc
Procedure, shortened: as §1

[7] = molecular target: Gal(b1-4)GlcNAc(b1-3)Gal(b1-4)GlcNAc(b1-3)Gal(b1-4)GlcNAc
Procedure, shortened: as §1

[8] = molecular target: Gal(b1-4)GlcNAc(b1-3)Gal(b1-4)GlcNAc(b1-3)Gal(b1-4)GlcNAc(b1-2)Man(a1-3)[Gal(b1-4)GlcNAc(b1-3)Gal(b1-4)GlcNAc(b1-3)Gal(b1-4)GlcNAc(b1-2)Man(a1-6)]Man(b1-4)GlcNAc(b1-4)GlcNAc
Procedure, shortened: as §1

[9] = molecular target: Gal(b1-4)GlcNAc(b1-3)Gal(b1-4)GlcNAc(b1-3)Gal(b1-4)GlcNAc(b1-2)Man(a1-3)[Gal(b1-4)GlcNAc(b1-3)Gal(b1-4)GlcNAc(b1-3)Gal(b1-4)GlcNAc(b1-2)Man(a1-6)]Man(b1-4)GlcNAc(b1-4)[Fuc(a1-6)]GlcNAc
Procedure, shortened: as §1

[10] = molecular target: Gal(b1-4)GlcNAc(b1-3)Gal(b1-4)GlcNAc(b1-3)Gal(b1-4)GlcNAc(b1-2)[Gal(b1-4)GlcNAc(b1-3)Gal(b1-4)GlcNAc(b1-3)Gal(b1-4)GlcNAc(b1-6)]Man(a1-6)[Gal(b1-4)GlcNAc(b1-3)Gal(b1-4)GlcNAc(b1-3)Gal(b1-4)GlcNAc(b1-2)Man(a1-3)]Man(b1-4)GlcNAc(b1-4)[Fuc(a1-6)]GlcNAc
Procedure, shortened: as §1

[11] = molecular target: Gal(b1-4)GlcNAc(b1-3)Gal(b1-4)GlcNAc(b1-3)Gal(b1-4)GlcNAc(b1-3)Gal(b1-4)GlcNAc(b1-2)Man(a1-3)[Gal(b1-4)GlcNAc(b1-3)Gal(b1-4)GlcNAc(b1-3)Gal(b1-4)GlcNAc(b1-3)Gal(b1-4)GlcNAc(b1-2)Man(a1-6)]Man(b1-4)GlcNAc(b1-4)GlcNAc
Procedure, shortened: as §1

[12] = molecular target: Gal(b1-4)GlcNAc(b1-3)Gal(b1-4)GlcNAc(b1-3)Gal(b1-4)GlcNAc(b1-3)Gal(b1-4)GlcNAc(b1-2)Man(a1-3)[Gal(b1-4)GlcNAc(b1-3)Gal(b1-4)GlcNAc(b1-3)Gal(b1-4)GlcNAc(b1-3)Gal(b1-4)GlcNAc(b1-2)Man(a1-6)]Man(b1-4)GlcNAc(b1-4)[Fuc(a1-6)]GlcNAc
Procedure, shortened: as §1

[13] = molecular target: Gal(b1-4)GlcNAc(b1-3)Gal(b1-4)GlcNAc(b1-3)Gal(b1-4)GlcNAc(b1-3)Gal(b1-4)GlcNAc(b1-2)[Gal(b1-4)GlcNAc(b1-3)Gal(b1-4)GlcNAc(b1-3)Gal(b1-4)GlcNAc(b1-3)Gal(b1-4)GlcNAc(b1-6)]Man(a1-6)[Gal(b1-4)GlcNAc(b1-3)Gal(b1-4)GlcNAc(b1-3)Gal(b1-4)GlcNAc(b1-3)Gal(b1-4)GlcNAc(b1-2)Man(a1-3)]Man(b1-4)GlcNAc(b1-4)[Fuc(a1-6)]GlcNAc
Procedure, shortened: as §1

[14] = molecular target: Gal(b1-4)GlcNAc(b1-3)Gal(b1-4)GlcNAc(b1-3)Gal(b1-4)GlcNAc(b1-3)Gal(b1-4)GlcNAc(b1-3)Gal(b1-4)GlcNAc(b1-2)Man(a1-3)[Gal(b1-4)GlcNAc(b1-3)Gal(b1-4)GlcNAc(b1-3)Gal(b1-4)GlcNAc(b1-3)Gal(b1-4)GlcNAc(b1-3)Gal(b1-4)GlcNAc(b1-2)Man(a1-6)]Man(b1-4)GlcNAc(b1-4)GlcNAc
Procedure, shortened: as §1

[15] = molecular target: Gal(b1-4)GlcNAc(b1-3)Gal(b1-4)GlcNAc(b1-3)Gal(b1-4)GlcNAc(b1-3)Gal(b1-4)GlcNAc(b1-3)Gal(b1-4)GlcNAc(b1-2)Man(a1-3)[Gal(b1-4)GlcNAc(b1-3)Gal(b1-4)GlcNAc(b1-3)Gal(b1-4)GlcNAc(b1-3)Gal(b1-4)GlcNAc(b1-3)Gal(b1-4)GlcNAc(b1-2)Man(a1-6)]Man(b1-4)GlcNAc(b1-4)[Fuc(a1-6)]GlcNAc
Procedure, shortened: as §1

[16] = molecular target: Gal(b1-4)GlcNAc(b1-3)Gal(b1-4)GlcNAc(b1-3)Gal(b1-4)GlcNAc(b1-3)Gal(b1-4)GlcNAc(b1-3)Gal(b1-4)GlcNAc(b1-2)[Gal(b1-4)GlcNAc(b1-3)Gal(b1-4)GlcNAc(b1-3)Gal(b1-4)GlcNAc(b1-3)Gal(b1-4)GlcNAc(b1-3)Gal(b1-4)GlcNAc(b1-6)]Man(a1-6)[Gal(b1-4)GlcNAc(b1-3)Gal(b1-4)GlcNAc(b1-3)Gal(b1-4)GlcNAc(b1-3)Gal(b1-4)GlcNAc(b1-3)Gal(b1-4)GlcNAc(b1-2)Man(a1-3)]Man(b1-4)GlcNAc(b1-4)[Fuc(a1-6)]GlcNAc
Procedure, shortened: as §1

[17] = molecular target: Gal(b1-4)GlcNAc(b1-3)Gal(b1-4)GlcNAc(b1-3)Gal(b1-4)GlcNAc(b1-3)Gal(b1-4)GlcNAc(b1-3)Gal(b1-4)GlcNAc(b1-3)Gal(b1-4)GlcNAc(b1-2)Man(a1-3)[Gal(b1-4)GlcNAc(b1-3)Gal(b1-4)GlcNAc(b1-3)Gal(b1-4)GlcNAc(b1-3)Gal(b1-4)GlcNAc(b1-3)Gal(b1-4)GlcNAc(b1-3)Gal(b1-4)GlcNAc(b1-2)Man(a1-6)]Man(b1-4)GlcNAc(b1-4)GlcNAc
Procedure, shortened: as §1

[18] = molecular target: Gal(b1-4)GlcNAc(b1-3)Gal(b1-4)GlcNAc(b1-3)GalNAc
Procedure, shortened: as §1

[19] = molecular target: Gal(b1-4)GlcNAc(b1-3)Gal(b1-4)GlcNAc(b1-3)[Gal(b1-4)GlcNAc(b1-3)Gal(b1-4)GlcNAc(b1-6)]GalNAc
Procedure, shortened: as §1

B1: GS7807P-bth-537-23-537 (Bacteroides thetaiotaomicron) (protein)
chain: NYENINSNPYEAPDLSADGYALGSAMNNLAGCVVSPDVNTAQFTDCLLGGPLGGYFADSNAGFTETISNFNPKDDWSRVFLKSDKIIPTLYSNLTQVKLVSQNTNDPVPYAIAQVIKVAAMHRVTDAFGPIPYSQIGANGEIATPYDSQEVTYNTFFDELNAAIATLNENSNEQLVPTADYIYKGDVKKWIRFANSLKLRLAIRIAYANPVKAQQMAEEAVNPANGGVIESNADNATWNYFETSQNPIYVATRYNQVQTSDHGGVPCLTGGDTHAAADIICYMNGYKDNRREKFFTKSEWAGQDYVGMRRGIVIPELKTTGHKYSGVNIAPTSPLYWMNAAEVAFLRAEGQAVFNFSMGGTAESFYNQGIRLSFEQWGADGVEDYLKDDVNKPTAYTDPAGTNTYQNALSNITIKWNDSADKEEKQERIIVQKWIANWQLGNEAWADFRRTGYPKLIPVKENKSGGVVDSEKGARRMPYPLDEFVSNKANVEYAIANYLHGADNMATDVWWASKK
glycan array binding signal (z-score) [1]: 0.214
glycan array binding signal (z-score) [2]: 0.137
glycan array binding signal (z-score) [3]: -0.038
glycan array binding signal (z-score) [4]: 0.167
glycan array binding signal (z-score) [5]: 1.2
glycan array binding signal (z-score) [6]: 0.198
glycan array binding signal (z-score) [7]: 0.544
glycan array binding signal (z-score) [8]: 0.491
glycan array binding signal (z-score) [9]: 0.096
glycan array binding signal (z-score) [10]: 1.18
glycan array binding signal (z-score) [11]: -0.358
glycan array binding signal (z-score) [12]: 0.306
glycan array binding signal (z-score) [13]: 0.587
glycan array binding signal (z-score) [14]: -0.239
glycan array binding signal (z-score) [15]: -0.261
glycan array binding signal (z-score) [16]: -0.352
glycan array binding signal (z-score) [17]: 2.28
glycan array binding signal (z-score) [18]: -0.246
glycan array binding signal (z-score) [19]: -0.158
